# Results as given in PubChem BioAssay AID504332 (National Center for Advancing Translational Sciences (NCATS), 2011).
# Values joined by “and” are separate entries in the source; they are usually repeats but may differ in a detail not shown here. Equal entries are not always repeated. About 31,000 (8.9%) of roughly 350,000 compounds were called active. This list was built around the results that the source calls inconclusive (neither active nor inactive); the mix of calls is not that of the screen. Calls come from the whole dose curve; as a rule, active = well fitted inhibition curve with a large enough effect; inconclusive = small, poorly fitted or top-dose-only effect; inactive = no such curve, though single readings can be large or run the other way. A potency beside an inconclusive call is a rough fit, not a confirmed value.
# Target: Histone-lysine N-methyltransferase EHMT2 (Homo sapiens) (UniProt Q96KQ7)
# Chain of UniProt Q96KQ7 (Q96KQ7 whole entry, looked up): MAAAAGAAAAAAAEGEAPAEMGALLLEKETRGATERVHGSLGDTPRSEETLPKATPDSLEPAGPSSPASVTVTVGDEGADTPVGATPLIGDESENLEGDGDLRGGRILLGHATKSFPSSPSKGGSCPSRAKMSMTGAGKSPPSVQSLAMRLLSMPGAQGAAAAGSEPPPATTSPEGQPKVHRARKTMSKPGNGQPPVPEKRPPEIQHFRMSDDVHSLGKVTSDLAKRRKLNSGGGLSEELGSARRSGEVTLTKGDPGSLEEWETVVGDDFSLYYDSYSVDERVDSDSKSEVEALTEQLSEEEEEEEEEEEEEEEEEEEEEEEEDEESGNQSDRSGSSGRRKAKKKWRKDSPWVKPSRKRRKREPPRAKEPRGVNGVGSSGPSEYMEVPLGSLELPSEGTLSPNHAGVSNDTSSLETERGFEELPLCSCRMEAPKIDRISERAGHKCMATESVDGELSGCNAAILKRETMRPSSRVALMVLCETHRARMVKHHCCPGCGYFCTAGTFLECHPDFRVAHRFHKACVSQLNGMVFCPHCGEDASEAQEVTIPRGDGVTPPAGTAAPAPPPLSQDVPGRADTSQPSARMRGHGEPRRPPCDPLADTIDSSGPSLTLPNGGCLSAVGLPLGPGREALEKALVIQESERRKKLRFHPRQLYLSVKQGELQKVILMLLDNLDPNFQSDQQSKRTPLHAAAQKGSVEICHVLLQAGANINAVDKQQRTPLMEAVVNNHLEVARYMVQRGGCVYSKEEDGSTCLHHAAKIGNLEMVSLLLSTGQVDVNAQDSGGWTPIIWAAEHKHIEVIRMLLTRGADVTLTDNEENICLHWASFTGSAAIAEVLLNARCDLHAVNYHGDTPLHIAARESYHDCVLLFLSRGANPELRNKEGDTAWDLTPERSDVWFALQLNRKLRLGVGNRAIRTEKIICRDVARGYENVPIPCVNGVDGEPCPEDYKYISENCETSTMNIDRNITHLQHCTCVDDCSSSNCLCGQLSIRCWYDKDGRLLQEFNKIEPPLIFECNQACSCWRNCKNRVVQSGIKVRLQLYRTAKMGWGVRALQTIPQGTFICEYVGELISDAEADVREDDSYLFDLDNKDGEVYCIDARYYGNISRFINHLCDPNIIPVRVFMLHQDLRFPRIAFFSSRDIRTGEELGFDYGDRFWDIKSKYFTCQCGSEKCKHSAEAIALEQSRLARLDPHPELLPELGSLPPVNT
# Experiment: qHTS Assay for Inhibitors of Histone Lysine Methyltransferase G9a; note: nearly all actives have a fitted effect of over 75% in size
# Details: G9a H3K9 monomethylation, AlphaScreen, 2 h; activity, negative = inhibition: at 59 µM (top of the series) unless noted
# Method in brief: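 Methyltransferase reactions run at room temperature for 2 h (20 nM enzyme, 500 nM biotin-H3K9 peptide, 20 uM SAM) after a 15 min compound preincubation; product detected by AlphaScreen beads and anti-H3K9me1 antibody.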
# % is set by controls: 0 for no effect and ±100 for the full control effect; potency is the fitted concentration of half-maximal effect; tags give direction and shape of the fitted curve.
SMILES,Potency,"activity, negative = inhibition"
COc1ccc(CN2CCN(c3ccccn3)CC2)c(OC)c1,"inconclusive: 11.2 µM [inhibitor, partial curve, poor fit]",–
Nc1cc2c(cc1[N+](=O)[O-])OCCO2,–,inactive: 9.83%
Cc1cccc(C2(c3cccc(C)c3)CC2C(=O)Nc2ccc([N+](=O)[O-])cc2O)c1 (stereo unspecified),"inconclusive: 39.8 µM [inhibitor, single point]",–
CN(C(=O)COC(=O)C1CCN(S(=O)(=O)c2cccs2)CC1)c1ccccc1,–,inactive: -33.8% [at 102 µM]
CCN1/C(=C/C=C/c2sc3ccccc3[n+]2CC)Sc2ccccc21,"inconclusive: 2 µM [inhibitor, partial curve, poor fit] and inconclusive: 11.2 µM [inhibitor, partial curve, poor fit]",–
Cc1ccc(NC(=O)C2=CC(c3ccc4c(c3)OCO4)=NS(=O)(=O)N2C)cc1,"inconclusive: 28.2 µM [inhibitor, partial curve, poor fit]",–
O=C(NC1CC1)C1CCN(C2CCN(C(=O)/C=C/c3ccc(F)cc3)CC2)CC1,–,inactive: 5.91% [at 102 µM]
COc1ccccc1N1CCN(C(=O)CN2C(=O)c3cccc4cccc(c34)C2=O)CC1,"inconclusive: 17.8 µM [inhibitor, partial curve]",–
COc1cccc(Nc2nc3ccc(C)cc3nc2-n2nc(C)cc2C)c1,–,inactive: 392%
COc1ccccc1/C=C/C(=O)Nc1ccc(S(=O)(=O)Nc2cc(C)nc(C)n2)cc1,active: 35.5 µM,–
COc1ccc(Nc2c(-c3ccccn3)nc3ccc(Cl)cn23)cc1,–,inactive: 39.5%
COc1ccccc1-n1nnnc1SCC(=O)Nc1oc(C)c2c(C)n[nH]c(=O)c12,active: 11.2 µM,–
O=C(CCC(=O)Nc1ccccc1)N/N=C/c1ccc2c(c1)OCO2,"inconclusive: 44.7 µM [inhibitor, partial curve, poor fit]",–
COc1ccc(Cl)cc1NC(=O)CSC1=Nc2ccccc2C2=NC(CC(=O)NCc3cccs3)C(=O)N12 (stereo unspecified),–,inactive: -31.9%
COc1ccc(OC)c(C2NC(=O)NC(C)=C2C(=O)Nc2ccc(F)cc2)c1 (stereo unspecified),"inconclusive: 0.1 µM [inhibitor, full curve, poor fit]",–
COc1cccc(N2CCN(S(=O)(=O)c3ccc(-c4ccno4)cc3OC)CC2)c1,–,inactive: -8.09%
C=CCNC(=S)Nc1nc2c(cc1C(=O)OCC)CCCC2,"inconclusive: 89.1 µM [inhibitor, single point]",–
CC(=O)c1ccc(-c2nnc(CCC(=O)N(C)Cc3cccc4cnccc34)o2)s1,"inconclusive: 79.4 µM [inhibitor, partial curve, poor fit]",–
Cc1nnc(Sc2nc3c(c(=O)[nH]c(=O)n3C)n2CCc2ccccc2)s1,"inconclusive: 1.41 µM [inhibitor, single point]",–
O=C(CSc1nc(-c2ccc(F)cc2)cc(C(F)(F)F)n1)NCCc1ccccc1,–,inactive: -20.6%
N#Cc1nc(-c2ccc(Cl)cc2)oc1N1CCCCC1,"inconclusive: 10 µM [inhibitor, partial curve, poor fit]",–
O=C(O)CN1CCCC1=Nc1ccccc1,"inconclusive: 11.2 µM [inhibitor, partial curve, poor fit]",–
CCN(CC)CCNc1nc(-c2ccc(OC(F)F)cc2)c(C)s1,"inconclusive: 50.1 µM [inhibitor, partial curve, poor fit]",–
O=C1N=c2ccccc2=C1c1c(O)[nH]c2c(C(F)(F)F)cccc12,–,inactive: -16.5% [at 102 µM]

SMILES,Potency,"activity, negative = inhibition"
COCC(C)NCc1ccc(C)cc1C (stereo unspecified),active: 11.2 µM,–
CCN(CC)c1nc(OCCNC(=O)Nc2ccccc2)nc(N(CC)CC)n1,"inconclusive: 17.8 µM [inhibitor, partial curve, poor fit]",–
CCOCCCNC(=O)C1CCN(S(=O)(=O)N2CCCC2)CC1,–,inactive: 37.9% [at 102 µM]
O=C1OC(/C(=C\Nc2ccc(F)cc2F)[N+](=O)[O-])c2ccccc21 (stereo unspecified),active: 44.7 µM,–
Cc1ccc(NC(=O)CSc2nc(-c3ccccc3Cl)nc3cc(=O)[nH]n23)c(C)c1,–,inactive: -8.22%
Clc1cccc(Cl)c1Cn1cnc2c(NCc3ccco3)ncnc21,"inconclusive: 10 µM [inhibitor, partial curve, poor fit]",–
Cc1ccc(C2SCCN2C(=O)c2ccc([N+](=O)[O-])cc2)cc1 (stereo unspecified),"inconclusive: 0.141 µM [inhibitor, full curve, poor fit]",–
CCOc1ccc(C(=S)N2CCCC2)c(OCC)c1,active: 10 µM,–
Cc1ccc(C(c2sc3nc(-c4ccco4)nn3c2O)N2CCC3(CC2)OCCO3)cc1 (stereo unspecified),–,inactive: -27.4%
CCCCn1cnc2cc(NCc3ccncc3)ccc21,"inconclusive: 8.91 µM [inhibitor, partial curve, poor fit]",–
Nn1c(Cc2cccc3ccccc23)nnc1SCC(=O)N1CC(=O)Nc2ccccc21,"inconclusive: 79.4 µM [inhibitor, partial curve, poor fit]",–
COc1ccccc1NC(=O)CC(NC1CCCCC1)C(=O)O (stereo unspecified),active: 50.1 µM,–
Cc1nc(/C=C/c2ccccc2)[nH]c(=O)c1-c1ccccc1,–,inactive: -12.3% [at 102 µM]
CC(/C=C/C1(O)C(C)CC(O)CC1(C)C)OC1OC(CO)C(O)C(O)C1O (stereo unspecified),–,inconclusive: -57.3% [inhibitor]
Cc1ccc(C(=O)NCc2ccc(F)cc2)cc1NC(=O)c1nsc2ccccc12,–,inactive: -6.2%
O=C(Nc1ccc2c(c1)OCCO2)c1cccc(Cl)c1Cl,–,inactive: 27.8% [at 102 µM]
COCCn1c(-c2ccccc2)cnc1SCC(=O)Nc1cccc2ccccc12,active: 31.6 µM,–
O=C(O)Cc1csc(Nc2cccc(Cl)c2)n1,–,inactive: -14.4%
COc1ccc(C2CC(c3ccc4ccccc4c3)=NN2C(=O)CN2C(=O)CCC2=O)cc1 (stereo unspecified),–,inactive: -17% [at 102 µM]
c1ccc2c(c1)nc(-c1ccncc1)n2CCNc1nc(CN2CCCCC2)cs1,active: 50.1 µM,–
O=C(O)c1ccc(-n2nnnc2SCc2ccccc2)cc1,"inconclusive: 63.1 µM [inhibitor, partial curve, poor fit]",–
CC(=O)c1ccc(NC(=O)CCc2nc3sc4c(c3c(=O)[nH]2)CCCC4)cc1,"inconclusive: 50.1 µM [inhibitor, partial curve, poor fit]",–
Cn1c2c(c3ccccc31)CCN1CCC[C@]21c1ccccc1,active: 39.8 µM,–
Cc1nnc(SCC(=O)c2ccc(S(=O)(=O)N3CCOCC3)cc2)n1-c1ccccc1,"inconclusive: 28.2 µM [inhibitor, single point]",–

SMILES,Potency,"activity, negative = inhibition"
COc1ccc(-c2ccc(N(C)C)cc2)cc1[C@H]1[C@H]2C=CC[C@@H](C)[C@@H]2C(=O)N1Cc1ccccc1,"inconclusive: 3.16 µM [inhibitor, single point]",–
COc1ccc(-n2cccc2/C=C2\C(=N)N3N=C(c4ccco4)SC3=NC2=O)cc1,"inconclusive: 8.91 µM [inhibitor, full curve]",–
Cc1cc(C)n(CC(=O)N/N=C/c2ccccn2)n1,active: 0.708 µM,–
Cn1c(=O)n(C)c2cc(N3CCCCC3)c(NC(=O)c3ccc(C(C)(C)C)cc3)cc21,"inconclusive: 1.58 µM [inhibitor, partial curve, poor fit]",–
O=C(NC(=S)Nc1ccc(CN2CCCCC2)cc1)c1ccco1,–,inconclusive: -83% [inhibitor]
Cc1cc(C)c2c(c1)c1nnc(SCCN3CCOCC3)nc1n2C,"inconclusive: 89.1 µM [inhibitor, single point]",–
Cn1cc(S(=O)(=O)c2ccccc2)c(=O)c2cc(F)c(N3CCCCCC3)cc21,–,inactive: -13.8%
COc1ccccc1-n1c(SCC(=O)Nc2cccc(C)c2)nc2c(c1=O)SCC2,"inconclusive: 79.4 µM [inhibitor, single point]",–
CNCC(O)c1cccc(O)c1 (stereo unspecified),–,inactive: -32.1% [at 2.33 µM]
O=[N+]([O-])/C(C(Cl)=C(Cl)Cl)=C1\Nc2ccccc2O1,active: 35.5 µM,–
COc1cc(C(=O)Nc2nonc2-c2ccc(C)c(C)c2)cc(OC)c1OC,–,inactive: -29.8%
NC(=S)N/N=C/c1coc2ccc(O)cc2c1=O,"inconclusive: 79.4 µM [inhibitor, single point]",–
Cc1ccc2nc3sc(-c4nnc(-c5ccccc5[N+](=O)[O-])o4)c(N)c3cc2c1,"inconclusive: 5.01 µM [inhibitor, full curve, poor fit]",–
Clc1cccc(-c2nn3c(Cn4cnc5ccccc54)nnc3s2)c1,"inconclusive: 4.47 µM [inhibitor, single point]",–
Cc1ccccc1CSCC(=O)NCc1ccco1,"inconclusive: 79.4 µM [inhibitor, single point]",–
CN1CCN(CCNC(=O)Nc2ccc([N+](=O)[O-])cc2)CC1,"inconclusive: 89.1 µM [inhibitor, single point]",–
N#C/C(=C/c1ccc(N2CCOCC2)o1)c1ccc(Cl)cc1,"inconclusive: 7.08 µM [inhibitor, full curve, poor fit]",–
Cc1ccccc1-c1nc(N2CCN(C)CC2)c2ccccc2n1,–,inactive: 2.42% [at 0.501 µM]
O=C(O)c1ccc(/C=N/Nc2ccc(S(=O)(=O)N3CCCC3)cc2[N+](=O)[O-])cc1,"inconclusive: 50.1 µM [inhibitor, partial curve, poor fit]",–
O=C(O)c1cccc(-n2nc(-c3ccc(Cl)c([N+](=O)[O-])c3)c3ccccc3c2=O)c1,"inconclusive: 89.1 µM [inhibitor, single point]",–
CC(=O)c1ccc(OCC(O)CN2CCN(c3ccc(F)cc3)CC2)cc1 (stereo unspecified),"inconclusive: 89.1 µM [inhibitor, single point]",–
Cc1ccc(CC(=O)NCCc2ccc(S(N)(=O)=O)cc2)cc1,–,inactive: -10.4%
COc1ccccc1N1CCN(C(=O)c2cc(C(C)(C)C)oc2C)CC1,"inconclusive: 28.2 µM [inhibitor, full curve]",–
